Sequences with one replicate were seen in a single cluster, so their values are uncertain.
Each sequence was assayed on ATP (assay: switch fluorescence ratio, 500 uM ATP over buffer (Cy3 cluster intensity, sum of 5 cycles each) (fold (ratio)); higher = stronger signal-on switching upon ATP binding; sequences stand for … in TCGTCGGCAGCGTCAGATGTGTATAAGAGACAGTTTTTTTTTTTTTTTTTTTTTTTTT…TC). Settings: aptamer strand: ATP DNA aptamer (quencher-CACCTGGGGGAGTATTGCGGAGGAAGG + anchor), 100 nM annealed; ATP concentration: 500 uM; one replicate.
Method in brief: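 Clusters carrying Cy3-labelled switching strands on a modified Illumina MiSeq flow-cell were annealed to 100 nM quencher-labelled ATP aptamer and imaged in selection buffer. They were imaged again after 15 min with 500 uM ATP at 22 °C, over five buffer/ATP cycles with NaOH stripping and re-annealing in between. For each cluster, the fluorescence ratio is the summed Cy3 intensity of the target cycles divided by that of the buffer cycles, averaged per switch-domain sequence. Clusters outside 100-1000 RFU were left out.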
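Also: ATP exposure 15 min at 22 °C before imaging.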

Sequence | switch fluorescence ratio
ATCGCAAGAT | 1.19
ATCGCAGGGC | 1.55
ATCGCATGCG | 0.974
ATCGCCCCGT | 1.02
ATCGCCGGAG | 1.01
ATCGCTCCGC | 1.61
ATCGCTTTGT | 0.974
ATCGGCCTGC | 0.865
ATCGGCTCG | 1.01
ATCGGCTGTA | 1.01
ATCGGCTTTC | 1
ATCGGGAGCA | 1.57
ATCGGGGCTG | 1.03
ATCGGGTTCG | 1
ATCGGTGCA | 1
ATCGTAAGAT | 0.988
ATCGTAGTGC | 1.05
ATCGTATGCT | 1.03
ATCGTGAGTG | 0.969
ATCGTTCAAG | 0.995
ATCGTTCCGT | 1.01
ATCGTTGAGA | 1.01
ATCGTTGCTA | 0.99
ATCGTTTAGC | 0.998
ATCGTTTGGT | 0.974

Sequence | switch fluorescence ratio
ATCTAAGTGC | 1.12
ATCTACTCCA | 1.11
ATCTAGGATC | 0.984
ATCTAGGTTG | 0.998
ATCTATAAGA | 0.959
ATCTATACGC | 1.02
ATCTATGTAC | 1.12
ATCTCATCGT | 0.961
ATCTCCTTGT | 0.952
ATCTCGGTCT | 0.999
ATCTCGTCC | 1
ATCTGAATGC | 1.14
ATCTGAGATA | 0.971
ATCTGAGGCA | 1.06
ATCTGAGTCG | 1
ATCTGCAACG | 1.03
ATCTGCTCAA | 1.04
ATCTGGATCT | 0.982
ATCTGGATGA | 0.984
ATCTGGGAAA | 1
ATCTGGTTCG | 0.959
ATCTGGTTTC | 1.01
ATCTGTCAGA | 0.967
ATCTGTGTGA | 1.02
ATCTTACAAG | 1.29

Sequence | switch fluorescence ratio
ATCTTAGGAG | 0.946
ATCTTCAACC | 1.05
ATCTTCCTTG | 1.27
ATCTTCGTAC | 1.15
ATCTTGCATA | 1.01
ATCTTGGCAC | 1
ATCTTTACGC | 0.996
ATGAAAACCC | 0.976
ATGAAACACG | 0.988
ATGAAACCCT | 1.18
ATGAAAGGAA | 1
ATGAACATCA | 1.04
ATGAACTTGA | 1.04
ATGAAGCGAC | 1.83
ATGAAGGTAG | 0.993
ATGAAGGTGT | 1.18
ATGAATCCAT | 0.938
ATGAATTCCC | 0.998
ATGACACTGT | 1.04
ATGACAGGGA | 1.02
ATGACAGTTT | 1.04
ATGACGTCGT | 1.03
ATGACTAAGG | 0.98
ATGACTATTG | 0.995
ATGACTCCCC | 1.21

Sequence | switch fluorescence ratio
ATGAGATGTT | 0.973
ATGAGATTT | 0.991
ATGAGGATTG | 0.997
ATGAGTACG | 1
ATGAGTCCTG | 0.959
ATGAGTCGGG | 1.03
ATGAGTCTAG | 0.963
ATGAGTGG | 0.999
ATGAGTTGCA | 0.977
ATGAGTTTGA | 0.992
ATGATATGAT | 0.998
ATGATATTCA | 1.05
ATGATGAAAC | 1.02
ATGATGCAG | 1.01
ATGATGCCGT | 1.06
ATGATTGGGG | 0.974
ATGATTTATG | 0.983
ATGCAAAACA | 1.03
ATGCAAGCGC | 0.979
ATGCAATTAA | 1.09
ATGCACCGGT | 0.981
ATGCACGTGT | 1.02
ATGCACTAGG | 1.09
ATGCAGGAAT | 0.981
ATGCAGGAGA | 0.966
